The test deals with recombinant human histone H3.1 (human, UniProt P68431). The experiment in a line: pull-down.

B1: RAGE^[…]-His-FLAG (extracellular part of RAGE) (domain or fragment)
chain: not shown
With B1, the binding result is reported as “binds”.

(Values after doi:10.1101/2024.09.03.610921 (bioRxiv, 2024).)
